Our source for the cell count values is the supplement of paper PMC4604168 (melanoma cell lines).

The structures appear in SMILES notation. Some of the results follow. Repeats are few or missing, and single values can be far off.
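Further: cell number obtained by counting DAPI-stained nuclei in high-throughput microscope images with image analysis software, screen run in 1,536-well plates.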

For this test, the system named is MeWo. The test is described as follows: cell count relative to DMSO control; melanoma cells; higher = more viable cells. Particulars: library dose: low library concentration; 72 h.
With `CC(=O)O[C@@]12CO[C@@H]1C[C@H](O)[C@@]1(C)C(=O)[C@H](O)C3=C(C)[C@@H](OC(=O)[C@H](O)[C@@H](NC(=O)OC(C)(C)C)c4ccccc4)C[C@@](O)([C@@H](OC(=O)c4ccccc4)[C@H]21)C3(C)C` [Docetaxel] + CN(NC(=O)CC(=O)NN(C)C(=S)c1ccccc1)C(=S)c1ccccc1 [STA4783] (first compound 0.0001 µM, partner dose 0.006 µM), the cell count turned out to be 35.6%.

`CC(=O)O[C@@]12CO[C@@H]1C[C@H](O)[C@@]1(C)C(=O)[C@H](O)C3=C(C)[C@@H](OC(=O)[C@H](O)[C@@H](NC(=O)OC(C)(C)C)c4ccccc4)C[C@@](O)([C@@H](OC(=O)c4ccccc4)[C@H]21)C3(C)C` [Docetaxel] + Cc1ccc(NC(=O)c2cccc(N(C)C)c2)cc1NC(=O)c1ccc(O)cc1 [ZM336372] (first compound 0.0001 µM, partner dose 2 µM) showed a cell count of 39.5%.

The compound `Nc1ncn([C@H]2C[C@H](O)[C@@H](CO)O2)c(=O)n1` [decitabine] + CO[C@@H]1[C@H](N(C)C(=O)c2ccccc2)C[C@H]2O[C@]1(C)n1c3ccccc3c3c4c(c5c6ccccc6n2c5c31)C(=O)NC4 [Midostaurin] (first compound 0.1 µM, partner dose 0.08 µM) gave a cell count of 72%.

In turn, `Nc1ccn([C@@H]2O[C@H](CO)[C@@H](O)C2(F)F)c(=O)n1` [gemcitabine] + CCc1ccc(CCOc2ccc(CC3SC(=O)NC3=O)cc2)nc1 [pioglitazone] (first compound 0.0004 µM, partner dose 2 µM) had a cell count of 103%.
